Measured values published in the supplement of paper PMC3334620.
Whole data set: some 33,000 sequences, median “E-score (-0.5 to 0.5)” near -0.011, cut for the highest 2% near 0.28. The list shows a part of the results.

The sequences below were run against T1, Gcr1 (UniProt P07261) (assay: PBM E-score (8-mer binding enrichment) (E-score (-0.5 to 0.5)); higher = stronger / more preferred TF binding; most listed sequences are background and not binding sites). Conditions: protein concentration: 100 nM; construct: GST-full length.
T1 sequence: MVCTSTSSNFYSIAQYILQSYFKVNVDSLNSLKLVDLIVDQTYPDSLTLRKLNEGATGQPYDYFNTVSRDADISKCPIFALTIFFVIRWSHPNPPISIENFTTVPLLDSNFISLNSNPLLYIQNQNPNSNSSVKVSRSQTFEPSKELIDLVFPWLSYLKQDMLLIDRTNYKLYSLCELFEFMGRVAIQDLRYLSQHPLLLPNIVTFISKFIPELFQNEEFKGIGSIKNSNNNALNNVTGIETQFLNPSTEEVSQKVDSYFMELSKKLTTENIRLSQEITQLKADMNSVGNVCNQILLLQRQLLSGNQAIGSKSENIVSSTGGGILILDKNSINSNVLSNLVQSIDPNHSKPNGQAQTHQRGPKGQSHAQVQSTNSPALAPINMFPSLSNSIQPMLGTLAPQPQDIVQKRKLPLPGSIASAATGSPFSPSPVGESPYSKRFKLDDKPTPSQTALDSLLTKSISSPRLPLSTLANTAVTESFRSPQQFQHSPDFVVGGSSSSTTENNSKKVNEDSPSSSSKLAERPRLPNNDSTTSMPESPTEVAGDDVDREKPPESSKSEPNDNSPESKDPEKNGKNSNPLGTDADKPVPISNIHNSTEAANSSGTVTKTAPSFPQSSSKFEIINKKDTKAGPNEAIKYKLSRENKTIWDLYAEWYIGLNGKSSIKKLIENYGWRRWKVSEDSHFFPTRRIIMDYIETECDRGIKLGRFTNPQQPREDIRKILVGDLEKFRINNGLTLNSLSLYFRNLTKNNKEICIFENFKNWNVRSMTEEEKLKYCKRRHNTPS
Experimental: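 Universal 'all 10-mer' protein binding microarrays (Agilent AMADID 015681) probed with GST-tagged S. cerevisiae TFs (full-length or DBD) made by in vitro transcription/translation (PURExpress), about 100-200 nM. Bound TF was detected with fluorescent anti-GST. Each ungapped 8-mer (which stands for itself and its reverse complement) is scored by the PBM enrichment score (E-score), a modified Wilcoxon-Mann-Whitney statistic from -0.5 to +0.5, computed with the Universal PBM Analysis Suite. Scale: above 0.35 generally sequence-specific binding.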
In the case of AGCCCTTA, the “PBM E-score” value is reported as -0.137. For GTCGTAAC, the “PBM E-score” value was -0.0346. With ATAAGTTA the “PBM E-score” value was 0.0916. GGTAATAC was tested, and the “PBM E-score” value was -0.00341. AGGGTCAA was tested, and the “PBM E-score” value was -0.0952. CCAGCAGC was tested, and the “PBM E-score” value was 0.272. With GCCTCTAC the “PBM E-score” value was 0.129. GAAGCGCA was tested, and the “PBM E-score” value was 0.129. ATGCTGCC was tested, and the “PBM E-score” value was 0.0147. For CCGAGAAA, the “PBM E-score” value was 0.15. With GAATTCCC the “PBM E-score” value was 0.116. With CCTTGCCA the “PBM E-score” value was -0.0989. In the case of ATACTAAG, the “PBM E-score” value is reported as 0.0439. For AGCTCTAC, the “PBM E-score” value was -0.198. In the case of ACTAGCAG, the “PBM E-score” value is reported as -0.054. In the case of CTGTAGTC, the “PBM E-score” value is reported as -0.0778. In the case of CGCGTGCA, the “PBM E-score” value is reported as -0.0886. For CGAATCAA, the “PBM E-score” value was -0.0457. With CAACCATA the “PBM E-score” value was 0.208. With CTCAGTCC the “PBM E-score” value was -0.206. CGCTAAGA was tested, and the “PBM E-score” value was -0.00114. With ATGCATAG the “PBM E-score” value was -0.105. CAGCTATA was tested, and the “PBM E-score” value was 0.181. With CCGTGTAG the “PBM E-score” value was -0.0596. GCGTAAGC was tested, and the “PBM E-score” value was -0.0756. For AAACAGGT, the “PBM E-score” value was 0.271. For CAATTAAG, the “PBM E-score” value was 0.101. For AGCTGTTC, the “PBM E-score” value was -0.115. In the case of CTGTGGCC, the “PBM E-score” value is reported as -0.0927. In the case of CACCCATC, the “PBM E-score” value is reported as 0.0249. For AAAGCAAA, the “PBM E-score” value was 0.0399. In the case of GACCGTGA, the “PBM E-score” value is reported as -0.176. CTATAAAG was tested, and the “PBM E-score” value was 0.0437. GATTTGCC was tested, and the “PBM E-score” value was -0.0236. AGCTACCA was tested, and the “PBM E-score” value was 0.269. In the case of AATCTCCC, the “PBM E-score” value is reported as -0.0475. For AAGTTCAA, the “PBM E-score” value was 0.0288. TCAACTCA was tested, and the “PBM E-score” value was 0.0773. For GAGCCAAA, the “PBM E-score” value was 0.0506. In the case of AATCAGGT, the “PBM E-score” value is reported as 0.0435. ATGCAAGG was tested, and the “PBM E-score” value was -0.0906. With AGTTTGGA the “PBM E-score” value was 0.117. For AAAATATA, the “PBM E-score” value was 0.156. AAACCTAG was tested, and the “PBM E-score” value was 0.0461. GCAGCCCA was tested, and the “PBM E-score” value was 0.199. GCCGCACA was tested, and the “PBM E-score” value was -0.124. ATATAACC was tested, and the “PBM E-score” value was -0.147. In the case of CCCTTTGA, the “PBM E-score” value is reported as -0.151. For GGAAGAAA, the “PBM E-score” value was -0.155. In the case of AAGAAGGG, the “PBM E-score” value is reported as -0.0458. In the case of TAGGGACA, the “PBM E-score” value is reported as 0.0118. In the case of GCCAGGAC, the “PBM E-score” value is reported as -0.212. CACAACCC was tested, and the “PBM E-score” value was -0.106. For GAAGAGAC, the “PBM E-score” value was 0.0695. In the case of AACAGCTA, the “PBM E-score” value is reported as -0.13. CCGCCCTA was tested, and the “PBM E-score” value was -0.0561. In the case of AATACGAA, the “PBM E-score” value is reported as 0.227. CATTTAGC was tested, and the “PBM E-score” value was -0.0426. In the case of GTAGAAGA, the “PBM E-score” value is reported as 0.145. In the case of AGCGTGCG, the “PBM E-score” value is reported as -0.0301. In the case of CCATATAA, the “PBM E-score” value is reported as 0.126. With GGAAGACC the “PBM E-score” value was -0.0348. With AACTGATT the “PBM E-score” value was -0.061. With AGCCAACT the “PBM E-score” value was -0.011. In the case of GAGCGTAA, the “PBM E-score” value is reported as -0.127. In the case of ACGCCGAT, the “PBM E-score” value is reported as 0.0467. With ATTAGAAA the “PBM E-score” value was 0.149. CACCGGGA was tested, and the “PBM E-score” value was 0.0902. With AGTATACT the “PBM E-score” value was -0.141. For CACATAAG, the “PBM E-score” value was -0.00832. For GCAAAGGC, the “PBM E-score” value was -0.281. In the case of CGCTGCGA, the “PBM E-score” value is reported as 0.0566. CTTTCCCA was tested, and the “PBM E-score” value was -0.15. With ACGCTCTA the “PBM E-score” value was -0.0794. AAAATGAT was tested, and the “PBM E-score” value was 0.183. For TAATGATA, the “PBM E-score” value was 0.17. For GGTGCCAC, the “PBM E-score” value was 0.225. AAAGTTGG was tested, and the “PBM E-score” value was 0.113. In the case of CCGTTACG, the “PBM E-score” value is reported as -0.0567. In the case of GACGAGTC, the “PBM E-score” value is reported as -0.131. With AGCGTAAC the “PBM E-score” value was -0.0791. For ACGTAACG, the “PBM E-score” value was -0.151. With CTAAGTAA the “PBM E-score” value was -0.0883. CCTGGCCC was tested, and the “PBM E-score” value was -0.204. For CTCAATCA, the “PBM E-score” value was 0.119. With AATCTGCT the “PBM E-score” value was -0.133.
